These results are taken from patent US20230123178A1 (Hoffmann-La Roche, published 2023).

For test [1], the target named is T1, full-length human PD1 on cells (human, UniProt Q15116 25-288).
T1 construct: also PD1 on primary human PBMC subsets and on Jurkat reporter cells; also called CHO-PD1; CHO-k1-huPD1 clone 5
Nature of the test: flow cytometry, freshly isolated resting human PBMCs (table title), CD8 T cells.

Test [2] concerns the target T1, full-length human PD1 on cells. Description: flow cytometry, freshly isolated resting human PBMCs (table title), γδ T cells.
In test [3] the target is T2, human 4-1BB on cells (human, UniProt Q07011 24-255).
T2 construct: whole, on cells; also called HeLa-hu4-1BB-NFkB-luc clone 26; HeLa-huCD137-NFkB-luc clone 26 cells
Description: flow cytometry on HeLa-huCD137-NFkB-luc clone 26 cells.

Test [4] concerns the target T1, full-length human PD1 on cells. Description: flow cytometry, freshly isolated resting human PBMCs (table title), CD4 T cells.
Test [5] concerns the target T2, human 4-1BB on cells. Description: cell-based or functional assay.
The target of test [6] is T1, full-length human PD1 on cells. Nature of the test: flow cytometry on CHO-K1-huPD1 clone 5 cells.
The target is the same in test [7]. Description: flow cytometry on fresh human PBMCs, gate CD4+ T cells; PE-conjugated anti-human IgG secondary; geo mean, baseline corrected.

T1 sequence (Q15116 25-288 limits assumed): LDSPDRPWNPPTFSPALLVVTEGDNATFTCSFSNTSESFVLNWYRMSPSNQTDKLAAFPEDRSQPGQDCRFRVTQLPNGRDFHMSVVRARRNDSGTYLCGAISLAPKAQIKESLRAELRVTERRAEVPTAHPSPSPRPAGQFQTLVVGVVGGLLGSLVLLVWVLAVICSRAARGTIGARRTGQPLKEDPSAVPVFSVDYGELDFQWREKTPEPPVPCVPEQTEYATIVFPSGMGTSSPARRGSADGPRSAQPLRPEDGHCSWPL
T2 sequence (Q07011 24-255): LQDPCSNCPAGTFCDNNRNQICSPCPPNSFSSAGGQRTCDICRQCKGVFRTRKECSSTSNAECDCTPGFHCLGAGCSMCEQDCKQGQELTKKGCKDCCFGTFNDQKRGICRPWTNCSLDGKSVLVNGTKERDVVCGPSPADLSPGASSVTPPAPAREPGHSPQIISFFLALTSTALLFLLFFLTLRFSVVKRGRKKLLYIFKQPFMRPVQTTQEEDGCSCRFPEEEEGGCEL

B1: bivalent PD1(0314)-targeted human 4-1BB ligand (71-248) containing Fc (kih) fusion molecule (Construct 7.6) (Fc fusion)
heavy 1: EVQLLESGGGLVQPGGSLRLSCAASGFSFSSYTMSWVRQAPGKGLEWVATISGGGRDIYYPDSVKGRFTISRDNSKNTLYLQMNSLRAEDTAVYYCVLLTGRVYFALDSWGQGTLVTVSSASTKGPSVFPLAPSSKSTSGGTAALGCLVKDYFPEPVTVSWNSGALTSGVHTFPAVLQSSGLYSLSSVVTVPSSSLGTQTYICNVNHKPSNTKVDKKVEPKSCDKTHTCPPCPAPEAAGGPSVFLFPPKPKDTLMISRTPEVTCVVVDVSHEDPEVKFNWYVDGVEVHNAKTKPREEQYNSTYRVVSVLTVLHQDWLNGKEYKCKVSNKALGAPIEKTISKAKGQPREPQVCTLPPSRDELTKNQVSLSCAVKGFYPSDIAVEWESNGQPENNYKTTPPVLDSDGSFFLVSKLTVDKSRWQQGNVFSCSVMHEALHNHYTQKSLSLSPGGGGGSGGGGSREGPELSPDDPAGLLDLRQGMFAQLVAQNVLLIDGPLSWYSDPGLAGVSLTGGLSYKEDTKELVVAKAGVYYVFFQLELRRVVAGEGSGSVSLALHLQPLRSAAGAAALALTVDLPPASSEARNSAFGFQGRLLHLSAGQRLGVHLHTEARARHAWQLTQGATVLGLFRVTPEIPAGLGGGGSGGGGSREGPELSPDDPAGLLDLRQGMFAQLVAQNVLLIDGPLSWYSDPGLAGVSLTGGLSYKEDTKELVVAKAGVYYVFFQLELRRVVAGEGSGSVSLALHLQPLRSAAGAAALALTVDLPPASSEARNSAFGFQGRLLHLSAGQRLGVHLHTEARARHAWQLTQGATVLGLFRVTPEIPAGL
heavy 2: EVQLLESGGGLVQPGGSLRLSCAASGFSFSSYTMSWVRQAPGKGLEWVATISGGGRDIYYPDSVKGRFTISRDNSKNTLYLQMNSLRAEDTAVYYCVLLTGRVYFALDSWGQGTLVTVSSASTKGPSVFPLAPSSKSTSGGTAALGCLVKDYFPEPVTVSWNSGALTSGVHTFPAVLQSSGLYSLSSVVTVPSSSLGTQTYICNVNHKPSNTKVDKKV[human IgG1 Fc with changes not given here]GGGGSGGGGSREGPELSPDDPAGLLDLRQGMFAQLVAQNVLLIDGPLSWYSDPGLAGVSLTGGLSYKEDTKELVVAKAGVYYVFFQLELRRVVAGEGSGSVSLALHLQPLRSAAGAAALALTVDLPPASSEARNSAFGFQGRLLHLSAGQRLGVHLHTEARARHAWQLTQGATVLGLFRVTPEIPAGL
light: EIVLTQSPATLSLSPGERATLSCRASESVDTSDNSFIHWYQQKPGQSPRLLIYRSSTLESGIPARFSGSGSGTDFTLTISSLEPEDFAVYYCQQNYDVPWTFGQGTKVEIKRTVAAPSVFIFPPSDEQLKSGTASVVCLLNNFYPREAKVQWKVDNALQSGNSQESVTEQDSKDSTYSLSSTLTLSKADYEKHKVYACEVTHQGLSSPVTKSFNRGEC
notes: two PD1 Fabs, dimeric and monomeric 4-1BB ligand fused at the C-terminus of each heavy chain; P329G LALA, knob-into-hole
In the case of B1, the EC50 in test [1] stood at 0.19 nM; in test [2], 0.27 nM; with human 4-1BB on cells [3] it was 0.32 nM; in test [4] it was 0.11 nM; in test [6] it was 1.82 nM. The “EC50 of NFκB-activation-induced Luciferase activity-curves, with CHO-k1-huPD1 clone 5” value with human 4-1BB on cells [5] was 0.007 nM.

B2: monovalent DP47 untargeted split trimeric human 4-1BB ligand (71-248) Fc (kih) fusion with CH-CL cross and with charged residues (control D) (Fc fusion)
chain 1: REGPELSPDDPAGLLDLRQGMFAQLVAQNVLLIDGPLSWYSDPGLAGVSLTGGLSYKEDTKELVVAKAGVYYVFFQLELRRVVAGEGSGSVSLALHLQPLRSAAGAAALALTVDLPPASSEARNSAFGFQGRLLHLSAGQRLGVHLHTEARARHAWQLTQGATVLGLFRVTPEIPAGLGGGGSGGGGSREGPELSPDDPAGLLDLRQGMFAQLVAQNVLLIDGPLSWYSDPGLAGVSLTGGLSYKEDTKELVVAKAGVYYVFFQLELRRVVAGEGSGSVSLALHLQPLRSAAGAAALALTVDLPPASSEARNSAFGFQGRLLHLSAGQRLGVHLHTEARARHAWQLTQGATVLGLFRVTPEIPAGLGGGGSGGGGSRTVAAPSVFIFPPSDRKLKSGTASVVCLLNNFYPREAKVQWKVDNALQSGNSQESVTEQDSKDSTYSLSSTLTLSKADYEKHKVYACEVTHQGLSSPVTKSFNRGE[human IgG1 Fc with changes not given here]
chain 2: REGPELSPDDPAGLLDLRQGMFAQLVAQNVLLIDGPLSWYSDPGLAGVSLTGGLSYKEDTKELVVAKAGVYYVFFQLELRRVVAGEGSGSVSLALHLQPLRSAAGAAALALTVDLPPASSEARNSAFGFQGRLLHLSAGQRLGVHLHTEARARHAWQLTQGATVLGLFRVTPEIPAGLGGGGSGGGGSASTKGPSVFPLAPSSKSTSGGTAALGCLVEDYFPEPVTVSWNSGALTSGVHTFPAVLQSSGLYSLSSVVTVPSSSLGTQTYICNVNHKPSNTKVDEKVEPKSC
heavy: [about 100 residues not given here]GSGFDYWGQGTLVTVSSASTKGPSVFPLAPSSKSTSGGTAALGCLVKDYFPEPVTVSWNSGALTSGVHTFPAVLQSSGLYSLSSVVTVPSSSLGTQTYICNVNHKPSNTKVDKKVEPKSCDKTHTCPPCPAPEAAGGPSVFLFPPKPKDTLMISRTPEVTCVVVDVSHEDPEVKFNWYVDGVEVHNAKTKPREEQYNSTYRVVSVLTVLHQDWLNGKEYKCKVSNKALGAPIEKTISKAKGQPREPQVCTLPPSRDELTKNQVSLSCAVKGFYPSDIAVEWESNGQPENNYKTTPPVLDSDGSFFLVSKLTVDKSRWQQGNVFSCSVMHEALHNHYTQKSLSLSPGK
light: [about 100 residues not given here][about 100 residues not given here]
Turning to B2, in test [7], the binding result is given as “no binding (tested: ~300 nM)”.

B3: DP47 untargeted 4-1BB ligand (71-254) trimer-containing Fc (kih) fusion antigen binding molecule (DP47 split 4-1BBL trimer) Control B (Fc fusion)
chain 1: [about 200 residues not given here]GGGGSGGGGSREGPELSPDDPAGLLDLRQGMFAQLVAQNVLLIDGPLSWYSDPGLAGVSLTGGLSYKEDTKELVVAKAGVYYVFFQLELRRVVAGEGSGSVSLALHLQPLRSAAGAAALALTVDLPPASSEARNSAFGFQGRLLHLSAGQRLGVHLHTEARARHAWQLTQGATVLGLFRVTPEIPAGLPSPRSEGGGGSGGGGSRTVAAPSVFIFPPSDRKLKSGTASVVCLLNNFYPREAKVQWKVDNALQSGNSQESVTEQDSKDSTYSLSSTLTLSKADYEKHKVYACEVTHQGLSSPVTKSFNRGE[human IgG1 Fc with changes not given here]
chain 2: [about 200 residues not given here][about 120 residues not given here]
heavy: [about 100 residues not given here]GSGFDYWGQGTLVTVSSASTKGPSVFPLAPSSKSTSGGTAALGCLVKDYFPEPVTVSWNSGALTSGVHTFPAVLQSSGLYSLSSVVTVPSSSLGTQTYICNVNHKPSNTKVDKKVEPKSCDKTHTCPPCPAPEAAGGPSVFLFPPKPKDTLMISRTPEVTCVVVDVSHEDPEVKFNWYVDGVEVHNAKTKPREEQYNSTYRVVSVLTVLHQDWLNGKEYKCKVSNKALGAPIEKTISKAKGQPREPQVCTLPPSRDELTKNQVSLSCAVKGFYPSDIAVEWESNGQPENNYKTTPPVLDSDGSFFLVSKLTVDKSRWQQGNVFSCSVMHEALHNHYTQKSLSLSPGK
light: [about 100 residues not given here][about 100 residues not given here]
notes: untargeted variant of Construct 7.1 with a DP47 germline Fab
For the molecule B3, the binding result in test [7] was “no binding (tested: ~300 nM)”.
